Measurements reported in PubChem BioAssay AID504333 (National Center for Advancing Translational Sciences (NCATS), 2011).
About 16,000 (4.4%) of roughly 360,000 compounds were called active. This list was built around the results that the source calls inconclusive (neither active nor inactive); the mix of calls is not that of the screen. Calls come from the whole dose curve; as a rule, active = well fitted inhibition curve with a large enough effect; inconclusive = small, poorly fitted or top-dose-only effect; inactive = no such curve, though single readings can be large or run the other way. A potency beside an inconclusive call is a rough fit, not a confirmed value.

Molecular target: Bromodomain adjacent to zinc finger domain protein 2B (Homo sapiens) (UniProt Q9UIF8)
Sequence of UniProt Q9UIF8 (Q9UIF8 whole entry, looked up, the tested form may be a part): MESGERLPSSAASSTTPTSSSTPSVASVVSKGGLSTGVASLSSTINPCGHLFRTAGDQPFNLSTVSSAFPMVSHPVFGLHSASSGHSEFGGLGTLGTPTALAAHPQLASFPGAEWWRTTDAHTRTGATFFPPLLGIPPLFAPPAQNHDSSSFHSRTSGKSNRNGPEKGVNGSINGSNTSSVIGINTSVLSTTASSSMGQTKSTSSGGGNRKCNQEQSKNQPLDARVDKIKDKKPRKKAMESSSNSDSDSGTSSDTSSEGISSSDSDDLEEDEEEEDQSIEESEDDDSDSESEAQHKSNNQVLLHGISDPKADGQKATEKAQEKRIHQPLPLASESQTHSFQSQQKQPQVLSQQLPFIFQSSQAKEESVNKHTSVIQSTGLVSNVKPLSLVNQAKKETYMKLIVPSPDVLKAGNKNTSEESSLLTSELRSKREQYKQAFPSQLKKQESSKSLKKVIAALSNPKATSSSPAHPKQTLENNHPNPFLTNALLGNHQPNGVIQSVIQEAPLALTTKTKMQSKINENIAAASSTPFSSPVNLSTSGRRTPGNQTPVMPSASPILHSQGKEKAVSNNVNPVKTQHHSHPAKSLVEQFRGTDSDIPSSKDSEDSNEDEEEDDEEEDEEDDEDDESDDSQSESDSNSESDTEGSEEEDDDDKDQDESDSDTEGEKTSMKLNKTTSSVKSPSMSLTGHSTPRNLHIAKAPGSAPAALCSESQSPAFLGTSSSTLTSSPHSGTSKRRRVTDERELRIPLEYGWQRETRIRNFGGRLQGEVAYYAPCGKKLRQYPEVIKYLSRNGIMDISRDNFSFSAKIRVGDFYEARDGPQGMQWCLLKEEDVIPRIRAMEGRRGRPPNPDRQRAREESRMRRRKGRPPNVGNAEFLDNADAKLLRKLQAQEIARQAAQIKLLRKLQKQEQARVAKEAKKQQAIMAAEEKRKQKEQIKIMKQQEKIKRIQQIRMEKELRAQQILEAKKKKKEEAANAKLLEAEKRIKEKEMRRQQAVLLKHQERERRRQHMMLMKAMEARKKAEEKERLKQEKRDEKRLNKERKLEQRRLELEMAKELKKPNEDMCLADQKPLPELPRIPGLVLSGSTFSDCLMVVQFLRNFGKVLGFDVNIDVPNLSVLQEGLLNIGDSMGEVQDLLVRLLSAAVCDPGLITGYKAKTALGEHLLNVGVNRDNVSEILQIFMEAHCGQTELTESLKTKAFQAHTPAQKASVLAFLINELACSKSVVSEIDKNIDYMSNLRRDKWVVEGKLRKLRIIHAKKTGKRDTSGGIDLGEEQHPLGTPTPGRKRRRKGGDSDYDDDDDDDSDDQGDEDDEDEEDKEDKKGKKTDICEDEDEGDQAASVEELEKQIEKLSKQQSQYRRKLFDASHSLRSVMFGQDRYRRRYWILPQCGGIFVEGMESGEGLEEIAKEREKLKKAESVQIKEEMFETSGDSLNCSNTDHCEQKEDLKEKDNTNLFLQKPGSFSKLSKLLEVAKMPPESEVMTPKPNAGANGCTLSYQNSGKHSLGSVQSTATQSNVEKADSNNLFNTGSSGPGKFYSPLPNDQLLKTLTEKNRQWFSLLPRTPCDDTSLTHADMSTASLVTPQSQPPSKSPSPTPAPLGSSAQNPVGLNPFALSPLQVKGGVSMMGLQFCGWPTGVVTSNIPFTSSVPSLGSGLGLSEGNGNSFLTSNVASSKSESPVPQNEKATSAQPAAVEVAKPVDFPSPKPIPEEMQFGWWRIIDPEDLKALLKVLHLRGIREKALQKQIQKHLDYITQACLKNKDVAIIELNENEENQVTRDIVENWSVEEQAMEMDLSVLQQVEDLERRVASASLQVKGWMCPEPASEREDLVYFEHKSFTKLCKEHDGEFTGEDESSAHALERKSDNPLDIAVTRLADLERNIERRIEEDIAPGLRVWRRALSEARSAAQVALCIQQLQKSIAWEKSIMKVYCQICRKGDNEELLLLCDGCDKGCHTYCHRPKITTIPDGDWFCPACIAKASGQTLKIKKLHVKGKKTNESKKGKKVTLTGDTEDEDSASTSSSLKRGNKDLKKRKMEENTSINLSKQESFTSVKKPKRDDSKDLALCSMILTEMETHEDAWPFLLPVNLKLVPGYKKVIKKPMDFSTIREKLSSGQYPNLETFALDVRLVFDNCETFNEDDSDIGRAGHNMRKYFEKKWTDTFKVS
Assay: qHTS Assay for Inhibitors of BAZ2B; note: nearly all actives have a fitted effect of over 60% in size
Conditions: AlphaScreen BAZ2B-H3K14Ac peptide displacement; series mostly up to 114 µM
Procedure, shortened: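 AlphaScreen luminescence quantifies BAZ2B engagement of H3K14Ac peptide; the protein and biotinylated peptide are both at 50 nM final, buffer PBS pH 7.4 with 0.01% Tween-20, all steps at room temperature.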
Potency is the fitted concentration of half-maximal effect; tags give direction and shape of the fitted curve.

SMILES | Potency
Cc1ccc(C)n1-n1cnc2sc3c(c2c1=O)CCCCC3 | inconclusive: 89.1 µM [inhibitor, single point]
COc1ccc(-n2cc(-c3ccccc3)c3c(N4CCN(CCO)CC4)ncnc32)cc1 | inconclusive: 50.1 µM [inhibitor, partial curve]
Cc1ccccc1CSc1nnc(-c2cccs2)n1Cc1ccco1 | inconclusive: 89.1 µM [inhibitor, single point]
COc1cccc(-c2cc3c(=O)n(-c4ccccc4)c(=S)[nH]c3s2)c1 | inactive
COc1ccc(N2CCN(C(=O)c3cc(=O)c4cc(C)cc(C)c4o3)CC2)cc1 | inconclusive: 50.1 µM [inhibitor, partial curve]
O=C(c1cc(-c2ccco2)nn1-c1cccc(Cl)c1)N1CCCCC1 | inconclusive: 70.8 µM [inhibitor, single point]
N#Cc1c(Cl)nc(SCc2ccccc2)nc1-c1ccccc1 | active: 79.4 µM
O=C(Nc1cccc(/C=C/c2ccccn2)c1)c1ccc(-n2cncn2)c([N+](=O)[O-])c1 | inactive
CN(C)/C=N/c1c(C#N)nnn1Cc1ccccc1 | inconclusive: 89.1 µM [inhibitor, single point]
Cc1ccc(-n2cnc(N)c2C(=O)c2cccc([N+](=O)[O-])c2)cc1 | inconclusive: 79.4 µM [inhibitor, single point]
O=C(CCc1c[nH]c2ccccc12)NCc1ccc2c(c1)OCO2 | inconclusive: 56.2 µM [inhibitor, partial curve]
O=C(c1ccc(Cl)c(S(=O)(=O)N2CCCCCC2)c1)N1CCN(c2ccc(O)cc2)CC1 | inconclusive: 50.1 µM [inhibitor, partial curve]
Cn1c(COc2ccc(Cl)cc2)nc2ccccc2c1=O | active: 50.1 µM
Cc1cccc(Cn2ccn(Cc3ccc(Cl)cc3)c(=O)c2=O)c1 | inconclusive: 89.1 µM [inhibitor, single point]
CCOC(=O)C1=NN(c2ccccc2)C(=O)/C1=C\c1ccc(N(C)C)cc1 | active: 10 µM
O=C(CSc1nc(-c2cccc(Cl)c2)nc2cc(=O)[nH]n12)Nc1ccccc1 | active: 56.2 µM
CCN(CC)C(=O)c1sc(NC(=O)c2nc3ncccn3n2)c(C(=O)OC)c1C | inconclusive: 89.1 µM [inhibitor, single point]
CCN1/C(=C/c2cc[n+](C)cc2)C=Cc2cc(C)ccc21 | inconclusive: 50.1 µM [inhibitor, partial curve]
Cc1ccc(NC(=O)COC(=O)Cc2cccs2)cc1S(=O)(=O)N1CCOCC1 | inactive
